The supplement of paper PMC12423691
Some of the results follow. Binding of human transcription factors and regulators to the viral nucleoprotein by AlphaScreen, crude cell-free proteins, amounts not normalised, one pass. Fold of the Venus control; higher = more signal. No active / inactive call. Single-pass screen; sequences are the whole Swiss-Prot entries looked up by name.

B1: ZNF668, Q96K58 (protein)
chain: MEVEAAEARSPAPGYKRSGRRYKCLSCTKTFPNAPRAARHAATHGPADCSEEVAEVKPKPETEAKAEEASGEKVSGSAAKPRPYACPLCPKAYKTAPELRSHGRSHTGEKPFPCPECGRRFMQPVCLRVHLASHAGELPFRCAHCPKAYGALSKLKIHQRGHTGERPYACADCGKSFADPSVFRKHRRTHAGLRPYSCERCGKAYAELKDLRNHERSHTGERPFLCSECGKSFSRSSSLTCHQRIHAAQKPYRCPACGKGFTQLSSYQSHERTHSGEKPFLCPRCGRMFSDPSSFRRHQRAHEGVKPYHCEKCGKDFRQPADLAMHRRVHTGDRPFKCLQCDKTFVASWDLKRHALVHSGQRPFRCEECGRAFAERASLTKHSRVHSGERPFHCNACGKSFVVSSSLRKHERTHRSSEAAGVPPAQELVVGLALPVGVAGESSAAPAAGAGLGDPPAGLLGLPPESGGVMATQWQVVGMTVEHVECQDAGVREAPGPLEGAGEAGGEEADEKPPQFVCRECKETFSTMTLLRRHERSHPELRPFPCTQCGKSFSDRAGLRKHSRTHSSVRPYTCPHCPKAFLSASDLRKHERTHPVPMGTPTPLEPLVALLGMPEEGPA
B2: SIX3, O95343 (protein)
chain: MVFRSPLDLYSSHFLLPNFADSHHRSILLASSGGGNGAGGGGGAGGGSGGGNGAGGGGAGGAGGGGGGGSRAPPEELSMFQLPTLNFSPEQVASVCETLEETGDIERLGRFLWSLPVAPGACEAINKHESILRARAVVAFHTGNFRDLYHILENHKFTKESHGKLQAMWLEAHYQEAEKLRGRPLGPVDKYRVRKKFPLPRTIWDGEQKTHCFKERTRSLLREWYLQDPYPNPSKKRELAQATGLTPTQVGNWFKNRRQRDRAAAAKNRLQHQAIGPSGMRSLAEPGCPTHGSAESPSTAASPTTSVSSLTERADTGTSILSVTSSDSECDV
B3: REST, Q13127 (protein)
chain: MATQVMGQSSGGGGLFTSSGNIGMALPNDMYDLHDLSKAELAAPQLIMLANVALTGEVNGSCCDYLVGEERQMAELMPVGDNNFSDSEEGEGLEESADIKGEPHGLENMELRSLELSVVEPQPVFEASGAPDIYSSNKDLPPETPGAEDKGKSSKTKPFRCKPCQYEAESEEQFVHHIRVHSAKKFFVEESAEKQAKARESGSSTAEEGDFSKGPIRCDRCGYNTNRYDHYTAHLKHHTRAGDNERVYKCIICTYTTVSEYHWRKHLRNHFPRKVYTCGKCNYFSDRKNNYVQHVRTHTGERPYKCELCPYSSSQKTHLTRHMRTHSGEKPFKCDQCSYVASNQHEVTRHARQVHNGPKPLNCPHCDYKTADRSNFKKHVELHVNPRQFNCPVCDYAASKKCNLQYHFKSKHPTCPNKTMDVSKVKLKKTKKREADLPDNITNEKTEIEQTKIKGDVAGKKNEKSVKAEKRDVSKEKKPSNNVSVIQVTTRTRKSVTEVKEMDVHTGSNSEKFSKTKKSKRKLEVDSHSLHGPVNDEESSTKKKKKVESKSKNNSQEVPKGDSKVEENKKQNTCMKKSTKKKTLKNKSSKKSSKPPQKEPVEKGSAQMDPPQMGPAPTEAVQKGPVQVEPPPPMEHAQMEGAQIRPAPDEPVQMEVVQEGPAQKELLPPVEPAQMVGAQIVLAHMELPPPMETAQTEVAQMGPAPMEPAQMEVAQVESAPMQVVQKEPVQMELSPPMEVVQKEPVQIELSPPMEVVQKEPVKIELSPPIEVVQKEPVQMELSPPMGVVQKEPAQREPPPPREPPLHMEPISKKPPLRKDKKEKSNMQSERARKEQVLIEVGLVPVKDSWLLKESVSTEDLSPPSPPLPKENLREEASGDQKLLNTGEGNKEAPLQKVGAEEADESLPGLAANINESTHISSSGQNLNTPEGETLNGKHQTDSIVCEMKMDTDQNTRENLTGINSTVEEPVSPMLPPSAVEEREAVSKTALASPPATMAANESQEIDEDEGIHSHEGSDLSDNMSEGSDDSGLHGARPVPQESSRKNAKEALAVKAAKGDFVCIFCDRSFRKGKDYSKHLNRHLVNVYYLEEAAQGQE
B4: TRIM13, O60858 (protein)
chain: MELLEEDLTCPICCSLFDDPRVLPCSHNFCKKCLEGILEGSVRNSLWRPAPFKCPTCRKETSATGINSLQVNYSLKGIVEKYNKIKISPKMPVCKGHLGQPLNIFCLTDMQLICGICATRGEHTKHVFCSIEDAYAQERDAFESLFQSFETWRRGDALSRLDTLETSKRKSLQLLTKDSDKVKEFFEKLQHTLDQKKNEILSDFETMKLAVMQAYDPEINKLNTILQEQRMAFNIAEAFKDVSEPIVFLQQMQEFREKIKVIKETPLPPSNLPASPLMKNFDTSQWEDIKLVDVDKLSLPQDTGTFISKIPWSFYKLFLLILLLGLVIVFGPTMFLEWSLFDDLATWKGCLSNFSSYLTKTADFIEQSVFYWEQVTDGFFIFNERFKNFTLVVLNNVAEFVCKYKLL
B5: VDR, P11473 (protein)
chain: MEAMAASTSLPDPGDFDRNVPRICGVCGDRATGFHFNAMTCEGCKGFFRRSMKRKALFTCPFNGDCRITKDNRRHCQACRLKRCVDIGMMKEFILTDEEVQRKREMILKRKEEEALKDSLRPKLSEEQQRIIAILLDAHHKTYDPTYSDFCQFRPPVRVNDGGGSHPSRPNSRHTPSFSGDSSSSCSDHCITSSDMMDSSSFSNLDLSEEDSDDPSVTLELSQLSMLPHLADLVSYSIQKVIGFAKMIPGFRDLTSEDQIVLLKSSAIEVIMLRSNESFTMDDMSWTCGNQDYKYRVSDVTKAGHSLELIEPLIKFQVGLKKLNLHEEEHVLLMAICIVSPDRPGVQDAALIEAIQDRLSNTLQTYIRCRHPPPGSHLLYAKMIQKLADLRSLNEEHSKQYRCLSFQPECSMKLTPLVLEVFGNEIS
B6: ZBTB20, Q9HC78 (protein)
chain: MLERKKPKTAENQKASEENEITQPGGSSAKPGLPCLNFEAVLSPDPALIHSTHSLTNSHAHTGSSDCDISCKGMTERIHSINLHNFSNSVLETLNEQRNRGHFCDVTVRIHGSMLRAHRCVLAAGSPFFQDKLLLGYSDIEIPSVVSVQSVQKLIDFMYSGVLRVSQSEALQILTAASILQIKTVIDECTRIVSQNVGDVFPGIQDSGQDTPRGTPESGTSGQSSDTESGYLQSHPQHSVDRIYSALYACSMQNGSGERSFYSGAVVSHHETALGLPRDHHMEDPSWITRIHERSQQMERYLSTTPETTHCRKQPRPVRIQTLVGNIHIKQEMEDDYDYYGQQRVQILERNESEECTEDTDQAEGTESEPKGESFDSGVSSSIGTEPDSVEQQFGPGAARDSQAEPTQPEQAAEAPAEGGPQTNQLETGASSPERSNEVEMDSTVITVSNSSDKSVLQQPSVNTSIGQPLPSTQLYLRQTETLTSNLRMPLTLTSNTQVIGTAGNTYLPALFTTQPAGSGPKPFLFSLPQPLAGQQTQFVTVSQPGLSTFTAQLPAPQPLASSAGHSTASGQGEKKPYECTLCNKTFTAKQNYVKHMFVHTGEKPHQCSICWRSFSLKDYLIKHMVTHTGVRAYQCSICNKRFTQKSSLNVHMRLHRGEKSYECYICKKKFSHKTLLERHVALHSASNGTPPAGTPPGARAGPPGVVACTEGTTYVCSVCPAKFDQIEQFNDHMRMHVSDG
B7: TFCP2, Q12800 (protein)
chain: MAWALKLPLADEVIESGLVQDFDASLSGIGQELGAGAYSMSDVLALPIFKQEESSLPPDNENKILPFQYVLCAATSPAVKLHDETLTYLNQGQSYEIRMLDNRKLGELPEINGKLVKSIFRVVFHDRRLQYTEHQQLEGWRWNRPGDRILDIDIPMSVGIIDPRANPTQLNTVEFLWDPAKRTSVFIQVHCISTEFTMRKHGGEKGVPFRVQIDTFKENENGEYTEHLHSASCQIKVFKPKGADRKQKTDREKMEKRTPHEKEKYQPSYETTILTECSPWPEITYVNNSPSPGFNSSHSSFSLGEGNGSPNHQPEPPPPVTDNLLPTTTPQEAQQWLHRNRFSTFTRLFTNFSGADLLKLTRDDVIQICGPADGIRLFNALKGRMVRPRLTIYVCQESLQLREQQQQQQQQQQKHEDGDSNGTFFVYHAIYLEELTAVELTEKIAQLFSISPCQISQIYKQGPTGIHVLISDEMIQNFQEEACFILDTMKAETNDSYHIILK
B8: ZIC3, O60481 (protein)
chain: MTMLLDGGPQFPGLGVGSFGAPRHHEMPNREPAGMGLNPFGDSTHAAAAAAAAAAFKLSPAAAHDLSSGQSSAFTPQGSGYANALGHHHHHHHHHHHTSQVPSYGGAASAAFNSTREFLFRQRSSGLSEAASGGGQHGLFAGSASSLHAPAGIPEPPSYLLFPGLHEQGAGHPSPTGHVDNNQVHLGLRGELFGRADPYRPVASPRTDPYAAGAQFPNYSPMNMNMGVNVAAHHGPGAFFRYMRQPIKQELSCKWIDEAQLSRPKKSCDRTFSTMHELVTHVTMEHVGGPEQNNHVCYWEECPREGKSFKAKYKLVNHIRVHTGEKPFPCPFPGCGKIFARSENLKIHKRTHTGEKPFKCEFEGCDRRFANSSDRKKHMHVHTSDKPYICKVCDKSYTHPSSLRKHMKVHESQGSDSSPAASSGYESSTPPAIASANSKDTTKTPSAVQTSTSHNPGLPPNFNEWYV
B9: CEBPE, Q15744 (protein)
chain: MSHGTYYECEPRGGQQPLEFSGGRAGPGELGDMCEHEASIDLSAYIESGEEQLLSDLFAVKPAPEARGLKGPGTPAFPHYLPPDPRPFAYPPHTFGPDRKALGPGIYSSPGSYDPRAVAVKEEPRGPEGSRAASRGSYNPLQYQVAHCGQTAMHLPPTLAAPGQPLRVLKAPLATAAPPCSPLLKAPSPAGPLHKGKKAVNKDSLEYRLRRERNNIAVRKSRDKAKRRILETQQKVLEYMAENERLRSRVEQLTQELDTLRNLFRQIPEAANLIKGVGGCS

Biological target: nucleoprotein N of Crimean-Congo hemorrhagic fever virus
Assay: AlphaScreen luminescence signal relative to Venus negative control (fold); higher = stronger binding to CCHFV N
Description: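 AlphaScreen binding of cell-free made, FLAG-GST-tagged human transcription factors and regulators (crude translation products) to biotinylated N protein; signal as fold of the FLAG-GST-Venus control. One pass.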

Binder | AlphaScreen luminescence signal
B1 | 1.81
B2 | 85.1
B3 | 1.72
B4 | 3.07
B5 | 1.81
B6 | 2.19
B7 | 2.33
B8 | 2.6
B9 | 3.67
